In paper PMC12820563 one finds binding signal (RPM ratio (pull-down/input)) data, which are given here for 63 sequences.

The list shows a part of the results. The list includes weakly bound sequences.

This test concerns the target T1, MBP-FoxP3dN (UniProt Q99JB6).
T1 sequence: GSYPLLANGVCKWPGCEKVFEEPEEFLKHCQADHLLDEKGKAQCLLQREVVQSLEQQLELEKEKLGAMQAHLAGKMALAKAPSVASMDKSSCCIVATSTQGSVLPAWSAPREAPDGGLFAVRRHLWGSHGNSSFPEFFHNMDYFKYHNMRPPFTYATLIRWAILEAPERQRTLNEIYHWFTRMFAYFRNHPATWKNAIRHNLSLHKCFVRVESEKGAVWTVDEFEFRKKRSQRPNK
In words: PD-seq (MBP pull-down with sequencing). Particulars: 20 mM Tris-HCl pH 7.5, 100 mM NaCl, 1.5 mM MgCl2, 0.4 uM protein, 0.1 uM dsDNA library, 30 min, room temperature, amylose pull-down; high values mean tight binding; double strand, one strand shown.
With “GATGATTGTTCTCCCAGCTGATGAATTAGTGTGCTCGAGTAAACAAATTTTCCTAATCTTTCTGTTCAAGCGCCATCTAC”, the binding signal (RPM ratio (pull-down/input)) came to 2.52.
The result for “GATGATTGTTCTCCCAGCTGATGAATTATCGAACTCGAGTAAACAAATTTTCCTAATCTTTCTGTTCAAGCGCCATCTAC” reads 0.289; that for “GATGATTGTTCTCCCAGCTGATGAATTGCTAGGCTCGAGTAAACAAATTTTCCTAATCTTTCTGTTCAAGCGCCATCTAC”, 0.452; that for “GATGATTGTTCTCCCAGCTGATGAATTGGATATCTCGAGTAAACAAATTTTCCTAATCTTTCTGTTCAAGCGCCATCTAC”, 0.756.
For the sequence “GATGATTGTTCTCCCAGCTGATGAATTCTGCATATCGAGTAAACAAATTTTCCTAATCTTTCTGTTCAAGCGCCATCTAC”, the binding signal (RPM ratio (pull-down/input)) came to 3.42.
With “GATGATTGTTCTCCCAGCTGATGAATTCGAGTAGTCGAGTAAACAAATTTTCCTAATCTTTCTGTTCAAGCGCCATCTAC”, the binding signal (RPM ratio (pull-down/input)) amounted to 0.423.
The result for “GATGATTGTTCTCCCAGCTGATGAATTATTAGTGTCGAGTAAACAAATTTTCCTAATCTTTCTGTTCAAGCGCCATCTAC” reads 1.29; that for “GATGATTGTTCTCCCAGCTGATGAATTAAGGGAATCGAGTAAACAAATTTTCCTAATCTTTCTGTTCAAGCGCCATCTAC”, 0.216.
As to “GATGATTGTTCTCCCAGCTGATGAATTTGCGACCTCGAGTAAACAAATTTTCCTAATCTTTCTGTTCAAGCGCCATCTAC”, the binding signal (RPM ratio (pull-down/input)) was found to be 0.862.
In the case of “GATGATTGTTCTCCCAGCTGATGAATTAATTTTGTCGAGTAAACAAATTTTCCTAATCTTTCTGTTCAAGCGCCATCTAC”, the binding signal (RPM ratio (pull-down/input)) was determined as 2.25.
Regarding “GATGATTGTTCTCCCAGCTGATGAATTCAGATGATCGAGTAAACAAATTTTCCTAATCTTTCTGTTCAAGCGCCATCTAC”, the binding signal (RPM ratio (pull-down/input)) is 0.441.
The result for “GATGATTGTTCTCCCAGCTGATGAATTTGGGGGGTCGAGTAAACAAATTTTCCTAATCTTTCTGTTCAAGCGCCATCTAC” reads 1.04; that for “GATGATTGTTCTCCCAGCTGATGAATTCAGCACTTCGAGTAAACAAATTTTCCTAATCTTTCTGTTCAAGCGCCATCTAC”, 0.696; that for “GATGATTGTTCTCCCAGCTGATGAATTGATGTTTTCGAGTAAACAAATTTTCCTAATCTTTCTGTTCAAGCGCCATCTAC”, 2.47.
On to “GATGATTGTTCTCCCAGCTGATGAATTCCAACAATCGAGTAAACAAATTTTCCTAATCTTTCTGTTCAAGCGCCATCTAC”, for which the binding signal (RPM ratio (pull-down/input)) turned out to be 0.562.
The result for “GATGATTGTTCTCCCAGCTGATGAATTCTGTCGGTCGAGTAAACAAATTTTCCTAATCTTTCTGTTCAAGCGCCATCTAC” reads 0.564; that for “GATGATTGTTCTCCCAGCTGATGAATTGTCACAATCGAGTAAACAAATTTTCCTAATCTTTCTGTTCAAGCGCCATCTAC”, 1.19; that for “GATGATTGTTCTCCCAGCTGATGAATTCCAGAACTCGAGTAAACAAATTTTCCTAATCTTTCTGTTCAAGCGCCATCTAC”, 0.17.
The result for “GATGATTGTTCTCCCAGCTGATGAATTCGGGCATTCGAGTAAACAAATTTTCCTAATCTTTCTGTTCAAGCGCCATCTAC” reads 4.9.
The result for “GATGATTGTTCTCCCAGCTGATGAATTAGCCTCTTCGAGTAAACAAATTTTCCTAATCTTTCTGTTCAAGCGCCATCTAC” reads 1.7.
For “GATGATTGTTCTCCCAGCTGATGAATTAGACTCATCGAGTAAACAAATTTTCCTAATCTTTCTGTTCAAGCGCCATCTAC”, the binding signal (RPM ratio (pull-down/input)) turned out to be 0.502.
The result for “GATGATTGTTCTCCCAGCTGATGAATTCCAATAATCGAGTAAACAAATTTTCCTAATCTTTCTGTTCAAGCGCCATCTAC” reads 0.325.
With “GATGATTGTTCTCCCAGCTGATGAATTAACACTATCGAGTAAACAAATTTTCCTAATCTTTCTGTTCAAGCGCCATCTAC” the figure was 0.529; with “GATGATTGTTCTCCCAGCTGATGAATTTACTAGCTCGAGTAAACAAATTTTCCTAATCTTTCTGTTCAAGCGCCATCTAC”, 0.547.
The result for “GATGATTGTTCTCCCAGCTGATGAATTACTCATCTCGAGTAAACAAATTTTCCTAATCTTTCTGTTCAAGCGCCATCTAC” reads 0.431; that for “GATGATTGTTCTCCCAGCTGATGAATTAGTCGCATCGAGTAAACAAATTTTCCTAATCTTTCTGTTCAAGCGCCATCTAC”, 1.29.
As for “GATGATTGTTCTCCCAGCTGATGAATTGAAGATTTCGAGTAAACAAATTTTCCTAATCTTTCTGTTCAAGCGCCATCTAC”, the binding signal (RPM ratio (pull-down/input)) was found to be 0.281.
As to “GATGATTGTTCTCCCAGCTGATGAATTCCGGTACTCGAGTAAACAAATTTTCCTAATCTTTCTGTTCAAGCGCCATCTAC”, the binding signal (RPM ratio (pull-down/input)) turned out to be 0.479.
On to “GATGATTGTTCTCCCAGCTGATGAATTCTCACTTTCGAGTAAACAAATTTTCCTAATCTTTCTGTTCAAGCGCCATCTAC”, for which the binding signal (RPM ratio (pull-down/input)) worked out at 0.343.
With “GATGATTGTTCTCCCAGCTGATGAATTGAATAAGTCGAGTAAACAAATTTTCCTAATCTTTCTGTTCAAGCGCCATCTAC” the figure was 0.232; with “GATGATTGTTCTCCCAGCTGATGAATTAACCTGCTCGAGTAAACAAATTTTCCTAATCTTTCTGTTCAAGCGCCATCTAC”, 0.244; with “GATGATTGTTCTCCCAGCTGATGAATTCTATCACTCGAGTAAACAAATTTTCCTAATCTTTCTGTTCAAGCGCCATCTAC”, 0.974.
On to “GATGATTGTTCTCCCAGCTGATGAATTTTGTAGATCGAGTAAACAAATTTTCCTAATCTTTCTGTTCAAGCGCCATCTAC”, for which the binding signal (RPM ratio (pull-down/input)) amounted to 1.58.
With “GATGATTGTTCTCCCAGCTGATGAATTACTAGAATCGAGTAAACAAATTTTCCTAATCTTTCTGTTCAAGCGCCATCTAC” the figure was 0.27; with “GATGATTGTTCTCCCAGCTGATGAATTGTAACATTCGAGTAAACAAATTTTCCTAATCTTTCTGTTCAAGCGCCATCTAC”, 1.36; with “GATGATTGTTCTCCCAGCTGATGAATTTCCGCGCTCGAGTAAACAAATTTTCCTAATCTTTCTGTTCAAGCGCCATCTAC”, 0.448.
With “GATGATTGTTCTCCCAGCTGATGAATTTACCAATTCGAGTAAACAAATTTTCCTAATCTTTCTGTTCAAGCGCCATCTAC”, the binding signal (RPM ratio (pull-down/input)) worked out at 0.53.
The result for “GATGATTGTTCTCCCAGCTGATGAATTATCCGGATCGAGTAAACAAATTTTCCTAATCTTTCTGTTCAAGCGCCATCTAC” reads 0.152; that for “GATGATTGTTCTCCCAGCTGATGAATTTCACGCCTCGAGTAAACAAATTTTCCTAATCTTTCTGTTCAAGCGCCATCTAC”, 0.633.
Consider “GATGATTGTTCTCCCAGCTGATGAATTGTATTTATCGAGTAAACAAATTTTCCTAATCTTTCTGTTCAAGCGCCATCTAC”, for which the binding signal (RPM ratio (pull-down/input)) stood at 6.83.
Consider “GATGATTGTTCTCCCAGCTGATGAATTGATCGAATCGAGTAAACAAATTTTCCTAATCTTTCTGTTCAAGCGCCATCTAC”, for which the binding signal (RPM ratio (pull-down/input)) was 0.275.
Regarding “GATGATTGTTCTCCCAGCTGATGAATTATCAGAGTCGAGTAAACAAATTTTCCTAATCTTTCTGTTCAAGCGCCATCTAC”, the binding signal (RPM ratio (pull-down/input)) worked out at 0.249.
Turning to “GATGATTGTTCTCCCAGCTGATGAATTCCGGGGCTCGAGTAAACAAATTTTCCTAATCTTTCTGTTCAAGCGCCATCTAC”, the binding signal (RPM ratio (pull-down/input)) came out at 0.264.
With “GATGATTGTTCTCCCAGCTGATGAATTTGCGACTTCGAGTAAACAAATTTTCCTAATCTTTCTGTTCAAGCGCCATCTAC” the figure was 1.4; with “GATGATTGTTCTCCCAGCTGATGAATTCAAGGACTCGAGTAAACAAATTTTCCTAATCTTTCTGTTCAAGCGCCATCTAC”, 0.227; with “GATGATTGTTCTCCCAGCTGATGAATTTACCGCCTCGAGTAAACAAATTTTCCTAATCTTTCTGTTCAAGCGCCATCTAC”, 0.683.
With “GATGATTGTTCTCCCAGCTGATGAATTAGGCTAATCGAGTAAACAAATTTTCCTAATCTTTCTGTTCAAGCGCCATCTAC” the figure was 0.458.
As for “GATGATTGTTCTCCCAGCTGATGAATTACCCATCTCGAGTAAACAAATTTTCCTAATCTTTCTGTTCAAGCGCCATCTAC”, the binding signal (RPM ratio (pull-down/input)) is 0.321.
The result for “GATGATTGTTCTCCCAGCTGATGAATTCCTAAAGTCGAGTAAACAAATTTTCCTAATCTTTCTGTTCAAGCGCCATCTAC” reads 0.19.
The result for “GATGATTGTTCTCCCAGCTGATGAATTAAACTGGTCGAGTAAACAAATTTTCCTAATCTTTCTGTTCAAGCGCCATCTAC” reads 0.284; that for “GATGATTGTTCTCCCAGCTGATGAATTTAGGCGATCGAGTAAACAAATTTTCCTAATCTTTCTGTTCAAGCGCCATCTAC”, 0.658.
The result for “GATGATTGTTCTCCCAGCTGATGAATTTAGGACTTCGAGTAAACAAATTTTCCTAATCTTTCTGTTCAAGCGCCATCTAC” reads 0.469; that for “GATGATTGTTCTCCCAGCTGATGAATTTACCTTGTCGAGTAAACAAATTTTCCTAATCTTTCTGTTCAAGCGCCATCTAC”, 0.453.
Regarding “GATGATTGTTCTCCCAGCTGATGAATTCCTACTCTCGAGTAAACAAATTTTCCTAATCTTTCTGTTCAAGCGCCATCTAC”, the binding signal (RPM ratio (pull-down/input)) came out at 0.298.
With “GATGATTGTTCTCCCAGCTGATGAATTAGCTACATCGAGTAAACAAATTTTCCTAATCTTTCTGTTCAAGCGCCATCTAC”, the binding signal (RPM ratio (pull-down/input)) is 0.577.
For the sequence “GATGATTGTTCTCCCAGCTGATGAATTCCATCGGTCGAGTAAACAAATTTTCCTAATCTTTCTGTTCAAGCGCCATCTAC”, the binding signal (RPM ratio (pull-down/input)) was determined as 0.317.
Consider “GATGATTGTTCTCCCAGCTGATGAATTGTTGCCGTCGAGTAAACAAATTTTCCTAATCTTTCTGTTCAAGCGCCATCTAC”, for which the binding signal (RPM ratio (pull-down/input)) was 2.01.
The result for “GATGATTGTTCTCCCAGCTGATGAATTGTCTGCTTCGAGTAAACAAATTTTCCTAATCTTTCTGTTCAAGCGCCATCTAC” reads 0.472; that for “GATGATTGTTCTCCCAGCTGATGAATTAAGTTCCTCGAGTAAACAAATTTTCCTAATCTTTCTGTTCAAGCGCCATCTAC”, 0.65.
With “GATGATTGTTCTCCCAGCTGATGAATTATCGTTGTCGAGTAAACAAATTTTCCTAATCTTTCTGTTCAAGCGCCATCTAC” the figure was 0.726; with “GATGATTGTTCTCCCAGCTGATGAATTCACGCGCTCGAGTAAACAAATTTTCCTAATCTTTCTGTTCAAGCGCCATCTAC”, 0.904.
For “GATGATTGTTCTCCCAGCTGATGAATTATGCCGTTCGAGTAAACAAATTTTCCTAATCTTTCTGTTCAAGCGCCATCTAC”, the binding signal (RPM ratio (pull-down/input)) came out at 2.29.
The result for “GATGATTGTTCTCCCAGCTGATGAATTCAGTACCTCGAGTAAACAAATTTTCCTAATCTTTCTGTTCAAGCGCCATCTAC” reads 0.666.
